Assay [1] deals with human adrenergic receptors. The conditions noted are these: HEK293 cells, 1 μM. From the text: (§1) Structures of the compounds used in this assay are shown below: […]
For assay [2], the target named is T1, human adrenergic receptors (Homo sapiens, UniProt P07550).
T1 construct: β2 adrenergic-stimulated cAMP levels in HEK293 cells; endogenous in cells; host or cells: HEK293
The conditions noted are these: HEK293 cells, 1 μM.
From the text: as §1

T1 sequence (P07550 whole entry): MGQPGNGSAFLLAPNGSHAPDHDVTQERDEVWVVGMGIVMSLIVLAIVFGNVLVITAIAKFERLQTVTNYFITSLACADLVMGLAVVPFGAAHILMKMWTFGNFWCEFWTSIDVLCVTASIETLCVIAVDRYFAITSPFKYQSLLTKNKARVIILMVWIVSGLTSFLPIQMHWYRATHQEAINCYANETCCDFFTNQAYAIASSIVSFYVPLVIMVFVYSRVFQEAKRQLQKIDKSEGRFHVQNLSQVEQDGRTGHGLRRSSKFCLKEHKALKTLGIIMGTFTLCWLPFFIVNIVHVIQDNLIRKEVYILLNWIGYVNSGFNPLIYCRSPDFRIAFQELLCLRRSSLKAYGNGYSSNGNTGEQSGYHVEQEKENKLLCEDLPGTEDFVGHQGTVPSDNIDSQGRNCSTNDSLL

Turning to `O=S(=O)(Nc1ccccc1)c1ccc(NC(=S)Nc2ccccc2)cc1` [LED209, N-phenyl-4-[[(phenylamino)thioxomethyl]amino]benzenesulfonamide], in assay [1], the “basal cAMP levels” value was “not LED209 reduce” and the “signaling through human adrenergic receptors” value is on record as “does not interfere with signaling through human adrenergic receptors”. Further, the “Iso (β2 adrenergic)-stimulated cAMP levels” value in assay [2] is “not LED209 reduce”.

Source of the values: patent US8252841B2, “Methods of inhibiting bacterial virulence and compounds relating thereto” (priority 2007, dated 2012).
